The text below walks through data of ChEMBL document CHEMBL4888484, “Replenishing the malaria drug discovery pipeline: Screening and hit evaluation of the MMV Hit Generation Library 1 (HGL1) against asexual blood stage Plasmodium falciparum ,using a nano luciferase reporter read-out” (2022).

Hit rate of the full screen: of about 150,000 compounds, about 540 (0.36%) showed an effect of 50% or more. Some of the results follow.

The subject of this assay is Plasmodium falciparum. As to the kind of experiment: Primary screen in NF54 nanoGlo assay, in single point, at 2uM, 72h; a lower Z score goes with more inhibition. It counts as functional, Erythrocyte. The note with it: timepoint 72 hour.
What is called % Inhibition is the drop in the measured response relative to a control, in per cent. Take `CC1CN(C(=O)c2ccc(-n3cccn3)nc2)CC(C)O1` (centres undefined): the “% Inhibition” value is recorded as -1% and the Z score is recorded as 0.08.

Turning to `CC1(C)NC(=O)N(Cc2noc(-c3ccco3)n2)C1=O`, the “% Inhibition” value was found to be 4% and the Z score is -0.45.

Consider `Cc1cc(NS(=O)(=O)NC(C)(C)C)no1`, for which the “% Inhibition” value is reported as 4% and the Z score is recorded as -0.81.

On to `COc1ncccc1CNC(=O)CCCN(C)C(=O)OC(C)(C)C`, for which the “% Inhibition” value is reported as -2% and the Z score stood at 0.33.

With `CCCOc1ccc(-c2ccc(-c3noc(-c4c(-c5ccccc5Cl)noc4C)n3)cc2)cc1`, the “% Inhibition” value is given as -4% and the Z score is 0.42.

On to `O=S1(=O)N[C@@H]2CN(CCCc3ccccc3)C[C@@H]2Oc2ccccc21`, for which the “% Inhibition” value is recorded as 1% and the Z score is -0.09.

As for `CN1CCN(C(=O)CCc2ccncc2)C[C@H]1C(C)(C)C`, the “% Inhibition” value is on record as -2% and the Z score was 0.31.

Regarding `CC(C)CN1CCN([C@H]2CCOC3(CCN(S(=O)(=O)c4ccccc4)CC3)C2)CC1`, the “% Inhibition” value was -19% and the Z score was found to be 2.05.

With `Cc1cc(O)nc(NC(=O)CCc2ccc(=O)n(C)n2)n1`, the “% Inhibition” value worked out at 8% and the Z score is listed as -0.99.

For `Cc1cc(OCc2c(F)cccc2Cl)nc(N(C)C)n1`, the “% Inhibition” value is listed as 2% and the Z score is on record as -0.18.

For `CCOC1CC(CCNC(=O)Cn2ccnn2)C1` (centres undefined), the “% Inhibition” value is listed as -10% and the Z score came to 1.46.

As for `O=C(O)c1ccc(CN2Cc3nc[nH]c3C[C@H]2c2nc(-c3ccc4ccccc4c3)no2)cc1`, the “% Inhibition” value is -2% and the Z score is 0.33.

With `Cc1nnc(NC(=O)C2CCCC2)n1C`, the “% Inhibition” value is reported as -6% and the Z score was 0.52.

Take `N#Cc1ccc(-c2nc(-c3ccc4c(c3)nnn4CCC(=O)N3CCCC3)no2)cc1`: the “% Inhibition” value is given as -12% and the Z score is 1.57.

On to `O=C(c1cn[nH]c1)N1CCN(Cc2ccc(Br)cc2)CC1`, for which the “% Inhibition” value is -13% and the Z score was 1.15.

Regarding `O=C(Cc1ccn[nH]1)N[C@H]1CCN(c2ccc(Cl)cc2Cl)C1`, the “% Inhibition” value was -1% and the Z score amounted to 0.12.

Turning to `CCn1nc(CO)c2c1CCN(C(=O)NCCC1CCCCCC1)C2`, the “% Inhibition” value is on record as -12% and the Z score worked out at 1.05.

Turning to `CC(C)=CCO[C@H]1COCC[C@@H]1NC(=O)c1c(C)noc1C`, the “% Inhibition” value was -10% and the Z score stood at 1.21.

In the case of `O=C(CC[C@H]1CCCN(S(=O)(=O)c2ccccc2F)C1)NCCN1CCOCC1`, the “% Inhibition” value is -13% and the Z score turned out to be 1.81.

Regarding `O=C1CN(c2ccc(NC(=O)c3coc(CC4CC4)n3)cn2)CCN1`, the “% Inhibition” value is -11% and the Z score is on record as 1.27.

For `Cc1noc(C)c1C(=O)OCc1cc(Cl)c2c(c1)OCO2`, the “% Inhibition” value is reported as -14% and the Z score was 2.27.

Take `O=S(=O)(NCCN1CCOCC1)c1ccc(-c2cnc(C3CCC3)o2)s1`: the “% Inhibition” value is -12% and the Z score came out at 1.4.

`CC(C)C(=O)N1CC2(CCCCC2)C[C@@H]1COCc1ccccc1`: the “% Inhibition” value was -9% and the Z score is recorded as 1.61.

As for `CN1C(=O)C[C@H](C(=O)N2CC[C@H](c3ccccc3)[C@H](CO)C2)[C@H]1c1cccnc1`, the “% Inhibition” value is recorded as 5% and the Z score was -0.71.

As for `COc1ccc(CNC(=O)c2ccc(-c3nc(CN4CCc5ccccc54)c(C)o3)cc2)cc1`, the “% Inhibition” value is -12% and the Z score is reported as 1.58.

`COc1ccc(CCNC(=O)c2cccc3c2C(=O)N(C2CCCCC2)C3)cc1OC`: the “% Inhibition” value is reported as -9% and the Z score worked out at 1.17.

Regarding `COc1ccc(NC(=O)N(C2CCCCC2)[C@@H](C)c2ccco2)c(OC)c1`, the “% Inhibition” value is listed as -10% and the Z score was found to be 1.64.

For `CCCNCc1cc(Cl)ccc1OC`, the “% Inhibition” value is 36% and the Z score is listed as -4.03.

Consider `CC[C@H]1C=CCN1C(=O)c1ccc(C(=O)N2CCOCC2)cc1`, for which the “% Inhibition” value was -3% and the Z score was 0.55.

`Cc1ccc2[nH]nc(CNC(=O)[C@@H]3CCCCO3)c2c1`: the “% Inhibition” value is on record as -3% and the Z score came to 0.54.

For the compound `COc1ccc(CNc2cc(C3CC(N)C3)nc(C3CC3)n2)c(OC)c1` (centres undefined), the “% Inhibition” value stood at 2% and the Z score is -0.37.

As to `COc1ccc([C@H](C)NCCc2cn(C)cn2)c(Cl)c1`, the “% Inhibition” value came to 0% and the Z score is listed as 0.09.

Take `Cc1cc(CNC(=O)CCCN2CCCC2=O)n(C)n1`: the “% Inhibition” value is listed as -15% and the Z score is recorded as 2.03.

Turning to `C[C@@H]1CN(C(=O)c2cccnc2N(C)C)CC[C@@]1(O)C1CCOCC1`, the “% Inhibition” value is on record as -2% and the Z score is listed as 0.26.

As to `COc1cc2c(cc1OC)CN(C(=O)c1cccc(S(=O)(=O)N[C@H]3CCS(=O)(=O)C3)c1)CC2`, the “% Inhibition” value is -3% and the Z score was found to be 0.5.

As for `NCC[C@H]1CN(C(=O)CCc2ccc(-c3ccccc3)cc2)CCO1`, the “% Inhibition” value was found to be 7% and the Z score is on record as -0.9.

For the compound `O=C(O)[C@@H]1CN(C(=O)Nc2ccn(-c3ccc(Cl)cc3Cl)n2)CCO1`, the “% Inhibition” value is listed as -8% and the Z score came out at 1.27.

For `Cc1ccc(CC(=O)Nc2ccccc2N2C(=O)N[C@@H](C)C2=O)cc1C`, the “% Inhibition” value was 8% and the Z score is on record as -1.02.

In the case of `O=C1CC[C@H](NC(=O)Nc2cc(-c3ccccc3)ns2)CN1`, the “% Inhibition” value is -16% and the Z score is on record as 1.58.

Turning to `C[C@@H](Cc1nc(-c2ccnn2C)cs1)n1cc(Cl)cn1`, the “% Inhibition” value is reported as 1% and the Z score is -0.07.

Regarding `CCn1nc(CC(C)C)cc1C(=O)N1CCOC[C@@H]1CC(=O)NC1CCC1`, the “% Inhibition” value was -6% and the Z score is on record as 0.62.

With `Cc1cccc(CNc2cc([C@H]3C[C@@H](N)C3)nc(N3CCCC3)n2)c1`, the “% Inhibition” value stood at 32% and the Z score was -1.33.
